Kd, koff and kon data for one molecule are collected here from patent publication US20260159607A1.

Experiment [1] has as its target purified DCLK1 (UniProt O15075). Nature of the experiment: Octet (BLI), antibody loaded on anti-human Fc (AHC) sensors, DCLK1 in solution at 100, 33.3, 11.1 and 3.7 nM, 1:1 fit.
Experiment [2] has the same target. Nature of the experiment: Octet BLI; antibody on anti-human IgG Fc biosensor, purified DCLK1 in solution, 1:1 fit.

A word on the Kd: it is the equilibrium constant for the complex coming apart. Broadly, the koff is a measure of how fast the partners let go of each other. Lower therefore signals a long-lived complex. Usually kon stands for a measure of how fast the partners come together.

B1: Chimeric parental (H6166 + L6165) (antibody, V domains shown)
VH: DVKLVESGGGLVKLGGSLKLSCAASGFTFSSYYMSWVRQTPEKRLELVAAINSNGGSTYYPDTVKGRFTISRDNAKNTLYLQMSSLKSEDTALYYCARHGGNYWYFDVWGAGTTVTVSS
VL: DIVMSQSPSSLAVSVGEKVTMS[sequence of about 80 residues omitted]FGGGTKLEIK
With B1, in the experiment with purified DCLK1 [1], the Kd turned out to be 6.02 nM. For the same molecule, in the experiment with purified DCLK1 [2], the dissociation constant (Kd) is 6 nM, the koff was determined as 0.00053 s⁻¹ and the on-rate (kon) turned out to be 87000 M⁻¹ s⁻¹.
